# Results from PubChem BioAssay (Tox21).
# The inconclusive results got no clear call from the source; some entries with a clear call stand among them for comparison. For part of these data: Potencies of inconclusive entries are doubtful fits and often do not repeat. Active and inactive are the calls of the source. Unless noted, calls follow the shape of the dose curve; as a rule, active = well fitted curve in the direction sought with a large enough effect in the repeat runs; inconclusive = weak or mixed curves; inactive = no such curve, though single readings can be large; an effect the other way counts as inactive or inconclusive.
# What was measured:
# [1] = qHTS assay to identify small molecule antagonists of the estrogen related receptor (ERR) signaling pathway from Tox21 library - cell viability counter screen (AID 1224834); also: nearly all actives have a fitted effect of over 30% in size
# Method in brief: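 Counter screen run in ERR cells (2,000 cells/well): cells pre-incubated 6 h, then treated with compounds for 17.5 h at 37 C. Fluorescence was read 30 min after CellTiter-Fluor addition.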
# [2] = biological target: Thyrotropin receptor (Homo sapiens) (UniProt P16473); test: qHTS assay to identify small molecule agonists of the thyroid stimulating hormone receptor (TSHR) signaling pathway (AID 1224843; calls by dose curve; also: nearly all actives have a fitted effect of over 45% in size; as to activation: % is scaled to controls: 0 for no effect and ±100 for the full control effect); details: TSHR-HEK293 cells, cAMP HTRF, agonist mode, 30 min; activation: at 92.4 µM (top of the series) unless noted
# Method in brief: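 Using 15 concentrations per compound in triplicate, cAMP production was monitored in TSHR-HEK293 cells after 30 min compound incubation at RT; HTRF reagents followed, with fluorescence intensity recorded after 1 h.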
# [3] = qHTS assay to identify small molecule agonists of H2AX (AID 1224845; active = well fitted activation curve with a large enough effect in the signal ratio in the repeat runs, not every such curve was filed as active; inconclusive = weak or mixed curves; the % refers to the signal ratio; as to activation (H2AX phosphorylation): % is scaled to controls: 0 for no effect and ±100 for the full control effect); details: CHO-K1 phospho-H2AX Ser139 HTRF, 3 h; activation (H2AX phosphorylation): at 154 µM (top of the series) unless noted
# Method in brief: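 Wild-type CHO-K1 cells plated overnight, then exposed 3 hr at 37C to compounds at 15 concentrations (0.76% DMSO). Lysed, then HTRF anti-pH2AX(S139)-cryptate/anti-H2AX-d2 detection after 24 hr at room temperature; emissions 665 and 620 nm.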
# [4] = qHTS assay to identify small molecule agonists of H2AX - cell viability counter screen (AID 1224847; calls by dose curve; also: nearly all actives have a fitted effect of over 30% in size)
# Method in brief: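 For this counter screen, overnight-attached CHO-K1 cells received test compounds (15 concentrations, 0.76% DMSO final); 3 hr later at 37C, CellTiter-Glo reagent was added and luminescence recorded after 30 min at room temperature.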
# [5] = qHTS RealTime-Glo MT Cell Viability Assay in HEK293 cells - 32 hour (AID 1224868); also: nearly all actives have a fitted effect of over 50% in size
# Method in brief: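 Nonlytic real-time viability readout: viable cells convert prosubstrate to NanoLuc substrate, giving luminescence proportional to live cell number. HEK293, 600 cells/well, compound added after 5 h, continuous culture at 37 C.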
# [6] = A CellTox Green Cytotoxicity Assay to monitor cytotoxicity in HEK293 cells - 0 hour (AID 1224869); also: nearly all actives have a fitted effect of over 50% in size
# Method in brief: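 Real-time, in one plate: 600 HEK293 cells/well with dead-cell DNA dye, pinned compound after 5 h, 37 C incubation over 40 h; viable cells give no appreciable fluorescence.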
# [7] = qHTS assay to identify small molecule agonists of the hypoxia (HIF-1) signaling pathway - cell viability counter screen (AID 1224844; calls by dose curve; also: nearly all actives have a fitted effect of over 50% in size)
# Method in brief: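 In this counter screen, HRE-bla ME-180 cell viability after 17 hrs of compound exposure at 37C was read by CellTiter-Glo luminescence, multiplexed with the beta-lactamase reporter measurement.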
# [8] = qHTS assay to identify small molecule agonists of the hypoxia (HIF-1) signaling pathway (AID 1224846; active = well fitted activation curve with a large enough effect in the signal ratio in the repeat runs, not every such curve was filed as active; inconclusive = weak or mixed curves; the % refers to the signal ratio; as to activation: % is scaled to controls: 0 for no effect and ±100 for the full control effect); details: HRE-bla ME-180 cells, beta-lactamase ratio, 17 h; activation: at 76.8 µM (top of the series) unless noted
# Method in brief: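 ME-180 HRE-bla reporter cells; compounds in DMSO, 17 h at 37C; read-out beta-lactamase via CCF4-AM FRET.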
# [9] = qHTS assay to identify small molecule antagonists of the estrogen related receptor signaling pathway with the pleiotropic PPARgamma coactivator (PGC) from Tox21 10K library (AID 1224841; call rule not given here; also: actives are mostly falling curves and most rising ones were filed inactive; nearly all actives have a fitted effect of over 50% in size)
# Method in brief: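 One-Glo luminescence, measured after half an hour at room temperature, quantified reporter output of PGC/ERR cells. These had been plated at 2,000 per well, incubated 6 h, dosed with compounds in DMSO, then kept 18 h at 37 C.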
# [10] = qHTS assay to identify small molecule antagonists of the estrogen related receptor (ERR) signaling pathway from Tox21 library (AID 1224848); also: nearly all actives have a fitted effect of over 50% in size
# Method in brief: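 Tox21 10K compounds in DMSO tested for ERR pathway antagonism in NTP's ERR cell line; 18 h, 37 C exposure; ONE-Glo luminescence.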
# [11] = qHTS assay to identify small molecule agonists of the estrogen related receptor signaling pathway with the pleiotropic PPARgamma coactivator (PGC) from Tox21 10K library (AID 1224842); also: nearly all actives have a fitted effect of over 15% in size
# Method in brief: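 PGC/ERR reporter cells (NTP line) were seeded 2,000 per well, rested 6 h at 37 C/5% CO2, then pin-dosed with compounds in DMSO for 18 h at 37 C; luciferase read by One-Glo luminescence after 30 min at room temperature.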
# [12] = qHTS RealTime-Glo MT Cell Viability Assay in HepG2 cells - 24 hour (AID 1224867); also: nearly all actives have a fitted effect of over 50% in size
# Method in brief: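 Luminescence read-out: viable HepG2 cells reduce a prosubstrate to a NanoLuc substrate, giving a signal proportional to live cell number. Reads taken at 0, 8, 16, 24, 32 and 40 h of compound exposure at 37 C.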
# Potency is read from the fitted curve at half-maximal effect; tags tell the direction and shape of the fitted curve or compound fluorescence and quenching.
# UniProt P16473, sequence (P16473 whole entry, looked up): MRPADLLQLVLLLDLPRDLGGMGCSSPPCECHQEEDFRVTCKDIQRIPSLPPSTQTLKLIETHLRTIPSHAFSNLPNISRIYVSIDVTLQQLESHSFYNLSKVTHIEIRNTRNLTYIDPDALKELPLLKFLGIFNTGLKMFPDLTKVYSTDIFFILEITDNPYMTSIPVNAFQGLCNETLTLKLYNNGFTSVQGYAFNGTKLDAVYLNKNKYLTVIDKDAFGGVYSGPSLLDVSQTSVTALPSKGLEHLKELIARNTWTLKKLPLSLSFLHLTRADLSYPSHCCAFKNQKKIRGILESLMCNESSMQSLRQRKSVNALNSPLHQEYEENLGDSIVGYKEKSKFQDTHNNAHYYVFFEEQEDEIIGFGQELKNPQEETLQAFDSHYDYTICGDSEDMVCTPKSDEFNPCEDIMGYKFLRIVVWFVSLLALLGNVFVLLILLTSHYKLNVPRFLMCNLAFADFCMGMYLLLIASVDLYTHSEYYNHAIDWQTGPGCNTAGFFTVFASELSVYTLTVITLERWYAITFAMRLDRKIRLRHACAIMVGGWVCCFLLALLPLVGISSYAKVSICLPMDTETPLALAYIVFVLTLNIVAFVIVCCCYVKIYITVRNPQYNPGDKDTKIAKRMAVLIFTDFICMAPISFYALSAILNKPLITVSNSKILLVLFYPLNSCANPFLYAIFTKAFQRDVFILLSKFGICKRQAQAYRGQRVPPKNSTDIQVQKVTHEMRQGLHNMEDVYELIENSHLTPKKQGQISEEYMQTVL
smiles,measurement,setting,value
CCOc1ccc(N)c([N+](=O)[O-])c1,Potency,[1],"inconclusive: 68.6 µM [cytotoxic, partial curve]"
same,activation,[2],inconclusive: -27%
same,Potency,[3],"inconclusive: 56.6 µM [falling, partial curve, poor fit]"
same,Potency,[4],inactive
same,Potency,[5],"inconclusive: 43.6 µM [cytotoxic, partial curve, poor fit]"
COc1cccc(CCc2ccccc2OCC(CN(C)C)OC(=O)CCC(=O)O)c1 (configuration not stated),Potency,[1],"inconclusive: 37.6 µM [cytotoxic, single point]"
same,Potency,[2],inactive
same,Potency,[5],"inconclusive: 5.35 µM [cytotoxic, full curve]"
CN1CCC(N(Cc2cccs2)c2ccccc2)CC1,Potency,[1],"inconclusive: 33.5 µM [cytotoxic, single point]"
same,Potency,[2],"inconclusive: 11.9 µM [activator, partial curve]"
same,Potency,[4],inactive
same,Potency,[6],"inconclusive: 26.8 µM [activator, partial curve, poor fit]"
O=c1cccccc1O,Potency,[1],"inconclusive: 69.9 µM [cytotoxic, single point]"
same,Potency,[7],"inconclusive: 62.9 µM [rising, single point]"
same,Potency,[3],active: 40.9 µM
same,Potency,[8],inconclusive: 49.9 µM [partial curve]
same,Potency,[5],"inconclusive: 49.9 µM [cytotoxic, single point]"
NCCCCCCNCCCCCCN,Potency,[1],inactive
same,Potency,[3],inactive
Cc1cc2c(cc1C(F)(F)F)N(C(=O)Nc1ccc(Oc3cccnc3C)nc1)CC2,Potency,[1],active: 15.6 µM
same,Potency,[7],"inconclusive: 14 µM [cytotoxic, partial curve]"
same,Potency,[3],"inconclusive: 81.2 µM [fluorescent, partial curve]"
same,Potency,[8],inactive
same,Potency,[4],active: 45.7 µM
CCO[Si](CCCSSSSCCC[Si](OCC)(OCC)OCC)(OCC)OCC,Potency,[1],"inconclusive: 77 µM [cytotoxic, partial curve, poor fit]"
same,Potency,[7],active: 19.5 µM
same,Potency,[8],inconclusive: 55 µM
same,Potency,[4],"inconclusive: 127 µM [cytotoxic, partial curve, poor fit]"
C#C[C@]1(OC(C)=O)CC[C@H]2[C@@H]3CCC4=C/C(=N/O)CC[C@@H]4[C@H]3CC[C@@]21CC,Potency,[1],"inconclusive: 29.8 µM [cytotoxic, single point]"
same,Potency,[9],"inconclusive: 33.5 µM [falling, single point]"
same,activation,[2],inconclusive: -18.1% [at 42.5 µM]
same,Potency,[7],"inconclusive: 4.25 µM [rising, partial curve]"
same,Potency,[3],"inconclusive: 55.2 µM [activator, single point]"
same,Potency,[8],inconclusive: 26.8 µM
same,Potency,[4],"inconclusive: 12.4 µM [cytotoxic, single point]"
same,Potency,[10],"inconclusive: 33.5 µM [inhibitor, single point]"
same,Potency,[5],"inconclusive: 26.8 µM [cytotoxic, single point]"
Cc1cc2c(cc1S(N)(=O)=O)S(=O)(=O)CCC2,Potency,[1],inactive
same,Potency,[3],inactive
Oc1ccc(Cc2ccccc2)cc1,Potency,[1],"inconclusive: 71.2 µM [cytotoxic, partial curve, poor fit]"
same,Potency,[11],inconclusive: 56.6 µM [activator]
same,Potency,[2],inactive
same,Potency,[4],"inconclusive: 93.2 µM [cytotoxic, single point]"
same,Potency,[5],active: 36 µM
CCC(C)N(C)C(=O)c1cc2ccccc2c(-c2ccccc2Cl)n1 (configuration not stated),Potency,[1],"inconclusive: 35.2 µM [cytotoxic, partial curve]"
same,Potency,[2],"inconclusive: 49.8 µM [falling, partial curve, poor fit]"
same,Potency,[5],"inconclusive: 35.5 µM [cytotoxic, single point]"
CCCCC(CC)CN1C(=O)C2C3C=CC(C3)C2C1=O (configuration not stated),Potency,[1],"inconclusive: 54.5 µM [cytotoxic, partial curve]"
same,activation,[2],inconclusive: -27.3%
same,Potency,[4],inconclusive: 113 µM [cytotoxic]
same,Potency,[5],"inconclusive: 24.5 µM [cytotoxic, partial curve, poor fit]"
CN1CCN(C2Cc3ccccc3Sc3ccc(Cl)cc32)CC1 (configuration not stated),Potency,[1],"inconclusive: 29.8 µM [cytotoxic, partial curve, poor fit]"
same,Potency,[7],active: 23.9 µM
same,activation (H2AX phosphorylation),[3],inconclusive: 7.95% [at 70.9 µM]
same,Potency,[8],"inconclusive: 0.601 µM [falling, full curve, poor fit]"
same,Potency,[12],active: 23.9 µM
same,Potency,[5],"inconclusive: 23.9 µM [cytotoxic, partial curve]"
